The record followed here is the supplement of paper PMC4967469.

Compound in this experiment: CCc1nc(-c2cccc(C)c2)c(-c2ccnc(NC(=O)c3ccccc3)c2)s1 [TAK-715]
The experiment can be described thus: Viability of human cancer cell lines after 72 h of drug (GDSC screen). The settings on record: top dose inferred. The method, then: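 Human cancer cell lines in 384-well plates, medium with 10% serum, drug for 72 h over a 256-fold dose range (nine 2-fold or five 4-fold steps up to the top dose). Adherent lines were fixed and stained with the nucleic acid dye Syto60, suspension lines read with resazurin; signal relative to control wells, capped at 0 and 100%. One two-parameter sigmoid per drug and line, fitted in a mixed model over all curves with the slope shared within a line.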

By IC50 is meant the dose at which the fit gives 50% viability; where the fit passes the top or lowest dose, that dose stands as a limit. The AUC spans the tested range (256-fold, ending at the top dose) of the same fit; values near 1 show little effect. Any top dose called inferred was calculated from the reported fits.

Regarding “A3-KAW (B-cell lymphoma, suspension, top dose 20 µM)”, the AUC turned out to be 0.822 and the IC50 came to 8.72 µM.

Take “A4-Fuk (B-cell lymphoma, suspension, top dose 20 µM)”: the AUC came to 0.82 and the IC50 worked out at 12.2 µM.

Take “A101D (melanoma, adherent, top dose 20 µM)”: the AUC came out at 0.957 and the half-maximal inhibitory concentration (IC50) was over 20 µM.

For A172 (glioma, adherent, top dose 20 µM), the AUC was determined as 0.94 and the IC50 was over 20 µM.

As to “A204 (rhabdomyosarcoma, adherent, top dose 20 µM)”, the AUC amounted to 0.917 and the IC50 was over 20 µM.

With “A253 (head and neck, adherent, top dose 20 µM)”, the AUC came out at 0.912 and the IC50 is over 20 µM.

Consider “A375 (melanoma, adherent, top dose 20 µM)”, for which the AUC was 0.895 and the IC50 is 16.7 µM.

As to A388 (skin, adherent, top dose 20 µM), the AUC worked out at 0.927 and the IC50 is over 20 µM.

Take “A427 (non-small cell lung carcinoma, adherent, top dose 20 µM)”: the AUC came out at 0.906 and the IC50 was over 20 µM.

In the case of A431 (skin, adherent, top dose 20 µM), the AUC came out at 0.823 and the IC50 was 11.1 µM.

On to A498 (kidney, adherent, top dose 20 µM), for which the AUC was 0.966 and the IC50 is over 20 µM.

With “A673 (rhabdomyosarcoma, adherent, top dose 20 µM)”, the AUC was determined as 0.919 and the concentration for half-maximal inhibition (IC50) was over 20 µM.

With A704 (kidney, adherent, top dose 20 µM), the AUC turned out to be 0.987 and the IC50 was over 20 µM.

For the cell line “A2058 (melanoma, adherent, top dose 20 µM)”, the AUC was determined as 0.897 and the 50% inhibitory concentration (IC50) is over 20 µM.

As for “A2780 (ovary, semi-adherent, top dose 20 µM)”, the AUC came out at 0.875 and the IC50 is over 20 µM.

For the cell line “ABC-1 (lung adenocarcinoma, adherent, top dose 20 µM)”, the AUC was determined as 0.889 and the half-maximal inhibitory concentration (IC50) is over 20 µM.

For ACHN (kidney, adherent, top dose 20 µM), the AUC came to 0.858 and the IC50 was over 20 µM.

Turning to AGS (stomach, adherent, top dose 20 µM), the AUC was determined as 0.948 and the IC50 was over 20 µM.

Turning to “ALL-PO (lymphoblastic leukaemia, suspension, top dose 20 µM)”, the AUC was found to be 0.774 and the IC50 was 8.27 µM.

“ALL-SIL (T-cell leukaemia, suspension, top dose 20 µM)”: the AUC was determined as 0.52 and the IC50 amounted to 1.4 µM.

As for “AM-38 (glioma, semi-adherent, top dose 20 µM)”, the AUC was found to be 0.969 and the IC50 was over 20 µM.

For the cell line “AMO-1 (haematopoietic neoplasm, suspension, top dose 20 µM)”, the AUC is 0.908 and the IC50 was over 20 µM.

For the cell line “AN3-CA (endometrium, adherent, top dose 20 µM)”, the AUC was 0.95 and the IC50 was over 20 µM.

For “ARH-77 (myeloma, suspension, top dose 20 µM)”, the AUC was determined as 0.914 and the IC50 was over 20 µM.

For the cell line “ASH-3 (thyroid, adherent, top dose 20 µM)”, the AUC was determined as 0.988 and the IC50 was over 20 µM.

As for “ATN-1 (T-cell lymphoblastic leukaemia, suspension, top dose 20 µM)”, the AUC was found to be 0.488 and the IC50 was found to be 1.16 µM.

As to “AU565 (breast, adherent, top dose 20 µM)”, the AUC was 0.952 and the half-inhibitory concentration (IC50) was over 20 µM.

For the cell line “AsPC-1 (pancreas, adherent, top dose 20 µM)”, the AUC is 0.951 and the IC50 was over 20 µM.

With “BB30-HNC (head and neck, adherent, top dose 20 µM)”, the AUC came to 0.918 and the IC50 is over 20 µM.

Regarding “BB49-HNC (head and neck, adherent, top dose 20 µM)”, the AUC turned out to be 0.978 and the IC50 was over 20 µM.

As for “BB65-RCC (kidney, adherent, top dose 20 µM)”, the AUC was 0.972 and the IC50 is over 20 µM.

For “BC-1 (B-cell lymphoma, suspension, top dose 20 µM)”, the AUC is 0.837 and the IC50 stood at 10.6 µM.

As to “BC-3 (B-cell lymphoma, suspension, top dose 20 µM)”, the AUC is 0.929 and the IC50 is over 20 µM.

Regarding “BCPAP (thyroid, adherent, top dose 20 µM)”, the AUC was found to be 0.955 and the IC50 is over 20 µM.

For the cell line “BE2-M17 (neuroblastoma, adherent, top dose 20 µM)”, the AUC stood at 0.945 and the IC50 is over 20 µM.

With “BE-13 (lymphoblastic leukaemia, suspension, top dose 20 µM)”, the AUC amounted to 0.836 and the IC50 is 12.1 µM.

Take “BEN (non-small cell lung carcinoma, adherent, top dose 20 µM)”: the AUC was determined as 0.94 and the IC50 is over 20 µM.

For “BFTC-905 (bladder, adherent, top dose 20 µM)”, the AUC amounted to 0.937 and the IC50 was over 20 µM.

Take “BFTC-909 (kidney, adherent, top dose 20 µM)”: the AUC turned out to be 0.977 and the IC50 is over 20 µM.

Turning to “BHT-101 (thyroid, adherent, top dose 20 µM)”, the AUC turned out to be 0.962 and the IC50 is over 20 µM.

Take “BHY (head and neck, adherent, top dose 20 µM)”: the AUC was 0.917 and the IC50 was over 20 µM.

Regarding “BICR10 (head and neck, adherent, top dose 20 µM)”, the AUC was 0.985 and the IC50 is over 20 µM.

Take “BICR22 (head and neck, adherent, top dose 20 µM)”: the AUC stood at 0.978 and the half-inhibitory concentration (IC50) is over 20 µM.

For the cell line “BICR31 (head and neck, adherent, top dose 20 µM)”, the AUC turned out to be 0.981 and the IC50 was over 20 µM.

Regarding “BICR78 (head and neck, adherent, top dose 20 µM)”, the AUC stood at 0.958 and the IC50 is over 20 µM.

As to “BL-41 (Burkitt lymphoma, suspension, top dose 20 µM)”, the AUC turned out to be 0.839 and the IC50 stood at 9.27 µM.

With “BPH-1 (prostate, adherent, top dose 20 µM)”, the AUC amounted to 0.702 and the IC50 is 4.96 µM.

For the cell line “BT-20 (breast, adherent, top dose 20 µM)”, the AUC worked out at 0.925 and the IC50 is over 20 µM.

For the cell line “BT-474 (breast, adherent, top dose 20 µM)”, the AUC came to 0.89 and the IC50 was over 20 µM.

With “BT-483 (breast, adherent, top dose 20 µM)”, the AUC turned out to be 0.963 and the IC50 was over 20 µM.

Take “BV-173 (chronic myeloid leukaemia, suspension, top dose 20 µM)”: the AUC is 0.885 and the IC50 is 17.3 µM.

For “Becker (glioma, adherent, top dose 20 µM)”, the AUC was 0.954 and the IC50 was over 20 µM.

As for “BxPC-3 (pancreas, adherent, top dose 20 µM)”, the AUC was 0.949 and the IC50 is over 20 µM.

With “C2BBe1 (large intestine, adherent, top dose 20 µM)”, the AUC is 0.965 and the half-inhibitory concentration (IC50) was over 20 µM.

For C3A (liver, adherent, top dose 20 µM), the AUC turned out to be 0.987 and the IC50 was over 20 µM.

As for “C32 (melanoma, adherent, top dose 20 µM)”, the AUC was determined as 0.967 and the IC50 was over 20 µM.

Consider “C-4-I (cervix, adherent, top dose 20 µM)”, for which the AUC came to 0.971 and the IC50 is over 20 µM.

For the cell line “C-33-A (cervix, adherent, top dose 20 µM)”, the AUC worked out at 0.935 and the IC50 is over 20 µM.

Turning to “CA46 (Burkitt lymphoma, suspension, top dose 20 µM)”, the AUC was found to be 0.839 and the IC50 was determined as 15.1 µM.

Take “CADO-ES1 (Ewing sarcoma, suspension, top dose 20 µM)”: the AUC was determined as 0.93 and the IC50 was over 20 µM.

On to “CAKI-1 (kidney, adherent, top dose 20 µM)”, for which the AUC stood at 0.87 and the IC50 was over 20 µM.

Regarding “CAL-12T (non-small cell lung carcinoma, adherent, top dose 20 µM)”, the AUC was 0.797 and the IC50 was found to be 10.7 µM.

Turning to “CAL-27 (head and neck, adherent, top dose 20 µM)”, the AUC was 0.926 and the IC50 is over 20 µM.

“CAL-29 (bladder, adherent, top dose 20 µM)”: the AUC is 0.975 and the half-inhibitory concentration (IC50) is over 20 µM.

As to “CAL-33 (head and neck, adherent, top dose 20 µM)”, the AUC worked out at 0.909 and the IC50 is over 20 µM.

Take “CAL-39 (cervix, adherent, top dose 20 µM)”: the AUC was 0.962 and the concentration for half-maximal inhibition (IC50) is over 20 µM.

On to “CAL-51 (breast, adherent, top dose 20 µM)”, for which the AUC was determined as 0.967 and the IC50 is over 20 µM.

As for “CAL-54 (kidney, adherent, top dose 20 µM)”, the AUC is 0.985 and the half-inhibitory concentration (IC50) is over 20 µM.

A word on the IC50: it is the concentration that inhibits the measured activity by half.
